The other results are listed elsewhere or left out.
How the values were obtained:
HSkMC = human skeletal muscle cells; test: cytotoxicity call (relative viability < 0.9); details: 10 µM
HepG2 = test: cytotoxicity call (relative viability < 0.9); details: 10 µM
S. aureus RN4220 = test: growth inhibition call (relative growth <= 0.2); details: 50 µM

C[C@H](CO)N1C[C@H](C)[C@@H](CN(C)Cc2ccncc2)OCCCC[C@H](C)Oc2ccc(NC(=O)c3ccccc3)cc2C1=O
inactive: cytotoxicity call (HSkMC) | cytotoxicity call (HepG2) | growth inhibition call (S. aureus RN4220)

C[C@H]1CN([C@@H](C)CO)S(=O)(=O)c2ccc(C#Cc3ccccn3)cc2O[C@H]1CN(C)Cc1ccccc1
inactive: cytotoxicity call (HSkMC) | cytotoxicity call (HepG2) | growth inhibition call (S. aureus RN4220)

C[C@@H]1CCCCO[C@@H](CN(C)C(=O)CCC(F)(F)F)[C@H](C)CN([C@@H](C)CO)C(=O)c2cc(NC(=O)NC3CCCCC3)ccc2O1
inactive: cytotoxicity call (HSkMC) | cytotoxicity call (HepG2) | growth inhibition call (S. aureus RN4220)

COc1ccc(NC(=O)N(C)C[C@H]2Oc3c(NC(=O)C4CC4)cccc3C(=O)N([C@H](C)CO)C[C@H]2C)cc1
inactive: cytotoxicity call (HSkMC) | cytotoxicity call (HepG2) | growth inhibition call (S. aureus RN4220)

CN(C)C(=O)C[C@@H]1CC[C@@H](NC(=O)C2CC2)[C@@H](CO)O1
inactive: cytotoxicity call (HSkMC) | cytotoxicity call (HepG2) | growth inhibition call (S. aureus RN4220)

C[C@H](CO)N1C[C@H](C)[C@H](CN(C)C(=O)NC2CCCCC2)OCCCC[C@H](C)Oc2ccc(NC(=O)c3ccncc3)cc2C1=O
inactive: cytotoxicity call (HSkMC) | cytotoxicity call (HepG2) | growth inhibition call (S. aureus RN4220)

C[C@@H](NC(=O)C[C@@H]1C=C[C@@H](NC(=O)CN2CCOCC2)[C@H](CO)O1)c1ccccc1
inactive: cytotoxicity call (HSkMC) | cytotoxicity call (HepG2) | growth inhibition call (S. aureus RN4220)

CN[C@@H]1[C@@H](O)[C@@H](O[C@@H]2[C@@H](O)[C@H](O[C@H]3O[C@H]([C@@H](C)NC)CC[C@H]3N)[C@@H](N)C[C@H]2N)OC[C@]1(C)O
inactive: cytotoxicity call (HSkMC) | cytotoxicity call (HepG2) | growth inhibition call (S. aureus RN4220)

C[C@H]1CN([C@@H](C)CO)C(=O)c2cc(NC(=O)NC3CCCCC3)ccc2O[C@@H]1CN(C)Cc1ccc(C(F)(F)F)cc1
inactive: cytotoxicity call (HSkMC) | cytotoxicity call (HepG2) | growth inhibition call (S. aureus RN4220)

COc1ccc(-c2cnc3c(c2)C(=O)N([C@H](C)CO)C[C@H](C)[C@@H](CN(C)S(=O)(=O)c2ccc(OC)cc2)O3)cc1
inactive: cytotoxicity call (HSkMC) | cytotoxicity call (HepG2) | growth inhibition call (S. aureus RN4220)

O=C(C[C@@H]1CC[C@@H]2[C@H](COC[C@H](O)CN2S(=O)(=O)c2ccccc2)O1)N1CCc2ccccc2C1
inactive: cytotoxicity call (HSkMC) | cytotoxicity call (HepG2) | growth inhibition call (S. aureus RN4220)

COCCNC(=O)C[C@@H]1CC[C@@H]2[C@H](COC[C@H](O)CN2C(=O)Nc2ccccc2OC)O1
inactive: cytotoxicity call (HSkMC) | cytotoxicity call (HepG2) | growth inhibition call (S. aureus RN4220)

C[C@H](CO)N1C[C@H](C)[C@@H](CN(C)CC2CCCCC2)OCCCC[C@H](C)Oc2ccc(NC(=O)NC3CCCCC3)cc2C1=O
inactive: cytotoxicity call (HSkMC) | cytotoxicity call (HepG2) | growth inhibition call (S. aureus RN4220)
